For three molecules, binding results are on record in patent publication US20230416380A1 (AJOU UNIVERSITY INDUSTRY ACADEMIC COOPERATION FOUNDATION, published 2023).

Results are given in words; binding and its absence hold for the method and conditions named. Some binding calls cover weakened binding; strength is not graded here. For some of these results: Sequences can lack the tags named with a protein.

For test [1], the target named is T1, mD1-mD2-hD3 IL-5Rα (mouse domains 1 and 2, human domain 3), on the surface of yeast (mouse; human).
T1 sequence: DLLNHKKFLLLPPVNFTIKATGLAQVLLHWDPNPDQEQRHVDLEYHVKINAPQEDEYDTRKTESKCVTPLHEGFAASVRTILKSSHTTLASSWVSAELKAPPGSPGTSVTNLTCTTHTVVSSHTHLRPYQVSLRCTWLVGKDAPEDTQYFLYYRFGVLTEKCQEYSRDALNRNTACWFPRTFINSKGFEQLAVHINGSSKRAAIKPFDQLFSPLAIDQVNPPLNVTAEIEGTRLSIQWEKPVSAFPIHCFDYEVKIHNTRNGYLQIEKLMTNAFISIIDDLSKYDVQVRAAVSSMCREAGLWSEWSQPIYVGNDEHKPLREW
As to the kind of experiment: flow cytometry on yeast, antibody 100 nM. In general terms: In flow cytometry, cells or beads pass a laser one at a time.

Test [2] concerns the target T2, hD1-mD2-mD3 IL-5Rα (human domain 1, mouse domains 2 and 3), on the surface of yeast (human; mouse) (UniProt P21183).
T2 sequence: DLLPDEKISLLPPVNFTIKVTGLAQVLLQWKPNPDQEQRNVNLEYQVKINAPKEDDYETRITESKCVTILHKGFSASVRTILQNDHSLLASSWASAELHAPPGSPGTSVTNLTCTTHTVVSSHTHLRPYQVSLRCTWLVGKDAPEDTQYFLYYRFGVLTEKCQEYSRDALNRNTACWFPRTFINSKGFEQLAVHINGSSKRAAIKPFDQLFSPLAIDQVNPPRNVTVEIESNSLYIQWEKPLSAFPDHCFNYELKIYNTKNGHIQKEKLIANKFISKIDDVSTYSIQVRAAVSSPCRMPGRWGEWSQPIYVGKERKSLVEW
As to the kind of experiment: flow cytometry on yeast displaying the receptor, antibody at 100 nM, fluorescent secondary antibody; control: 2nd Ab only.

The target of a further test is T3, mD1-hD2-mD3 IL-5Rα.
T3 sequence (extracellular domain displayed on yeast): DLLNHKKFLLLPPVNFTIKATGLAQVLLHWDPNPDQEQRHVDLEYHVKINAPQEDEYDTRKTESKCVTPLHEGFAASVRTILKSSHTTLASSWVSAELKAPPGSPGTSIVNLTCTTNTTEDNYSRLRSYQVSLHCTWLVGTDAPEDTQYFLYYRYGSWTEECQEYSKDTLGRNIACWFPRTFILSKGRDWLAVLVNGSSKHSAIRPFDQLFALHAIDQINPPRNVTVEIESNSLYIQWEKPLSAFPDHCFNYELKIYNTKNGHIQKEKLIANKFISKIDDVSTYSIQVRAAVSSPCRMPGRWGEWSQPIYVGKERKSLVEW
The description is as above.

Test [3] concerns the target T1, mD1-mD2-hD3 IL-5Rα (mouse domains 1 and 2, human domain 3), on the surface of yeast (mouse; human). Described as above.
The target of test [4] is T4, mouse IL-5Rα extracellular domain expressed on the surface of yeast (mouse) (UniProt P21183).
T4 sequence: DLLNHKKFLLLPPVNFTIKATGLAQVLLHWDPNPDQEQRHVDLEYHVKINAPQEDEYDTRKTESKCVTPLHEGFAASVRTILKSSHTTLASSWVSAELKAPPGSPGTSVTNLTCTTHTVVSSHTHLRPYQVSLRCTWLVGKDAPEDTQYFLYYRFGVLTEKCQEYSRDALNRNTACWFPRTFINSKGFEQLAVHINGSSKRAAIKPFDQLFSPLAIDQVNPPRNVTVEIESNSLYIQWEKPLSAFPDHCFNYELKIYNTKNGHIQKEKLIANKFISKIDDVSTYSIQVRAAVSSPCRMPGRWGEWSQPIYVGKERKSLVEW
The description is as above.

Test [5] addresses T5, sIL-5Rα (extracellular domain of human IL-5 receptor alpha subunit, Asp1-Asn313 of SEQ ID NO: 19, C-terminal Avi tag and 6×His tag, expressed in HEK293F) (human) (UniProt Q01344).
T5 sequence: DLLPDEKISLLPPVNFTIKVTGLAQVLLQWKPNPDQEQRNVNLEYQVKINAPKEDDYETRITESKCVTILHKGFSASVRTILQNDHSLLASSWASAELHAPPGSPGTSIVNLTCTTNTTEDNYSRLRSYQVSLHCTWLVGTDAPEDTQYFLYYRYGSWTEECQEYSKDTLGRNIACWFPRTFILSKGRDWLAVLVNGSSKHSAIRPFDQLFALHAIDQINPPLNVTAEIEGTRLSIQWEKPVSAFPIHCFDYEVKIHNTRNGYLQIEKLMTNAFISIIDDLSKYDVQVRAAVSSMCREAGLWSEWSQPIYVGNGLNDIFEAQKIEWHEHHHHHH
Description: biolayer interferometry (Octet QKe): antibody on the sensor, sIL-5Rα in solution; sheet legend 400, 200, 100, 50, 25 nM.

B1: 5R65.45 (anti-IL-5Rα humanized antibody, affinity matured from 5R65) (antibody, human IgG1, V domains shown)
VH: QVQLVQSGAEVKKPGSSVKVSCKASGYTFTSYWINWVRQAPGQGLEWIGHIYPNKNENYYNHKFKDKATLTVDKSTNTAYMELSSLRSEDTAVYYCTREYYGRSYYNAMDYWGQGTTLTVSS
VL: DIQMTQSPSTLSASVGDRVTITCKASQNVGTAVAWYQQKPGKAPKLLIYWASTRHTGVPDRFSGSGSGTDFTLTISSLQPDDFATYYCQQFGRYPYTFGSGTKVEVK
B1: the binding entry in test [1] was “binds”; in test [2] it was “no binding (tested: 100 nM)”; with mD1-hD2-mD3 IL-5Rα it was “no binding (tested: 100 nM)”; in test [3], “binds”; in test [4], “no binding (tested: 100 nM)”.

B2: 5R65.39 (anti-IL-5Rα humanized antibody, affinity matured from 5R65) (antibody, human IgG1, V domains shown)
VH: QVQLVQSGAEVKKPGSSVKVSCKASGYTFTSYWINWVRQAPGQGLEWIGHIYPNKNENYYNHKFKDKATLTVDKSTNTAYMELSSLRSEDTAVYYCTREFYGRSRYSAMDYWGQGTTLTVSS
VL: DIQMTQSPSTLSASVGDRVTITCKASQNVGTAVAWYQQKPGKAPKLLIYWASTRHTGVPDRFSGSGSGTDFTLTISSLQPDDFATYYCQQFGRYPYTFGSGTKVEVK
Consider B2, for which the binding entry with mD1-hD2-mD3 IL-5Rα is “no binding (tested: 100 nM)”.

B3: hu2B7 (humanized m2B7) (antibody, V domains shown)
VH: QVQLVQSGAEVKKPGSSVKVSCKASGYTFTSYWINWVRQAPGQGLEWIGHIYPSESYTNYNQKFKDKATLTVDKSTNTAYMELSSLRSEDTAVYYCTRDYYGRSYYYAMDYWGQGTTLTVSS
VL: DIQMTQSPSTLSASVGDRVTITCKASQNVGTAVAWYQQKPGKAPKLLIYWASTRHTGVPDRFSGSGSGTDFTLTISSLQPDDFATYYCQQFGRYPYTFGSGTKVEVK
notes: Expressed from plasmids encoding HC and LC and purified on protein A; also called humanized antibody hu2B7
Regarding B3, in test [5], the binding entry is “binds”.
